Some of the results follow.
Each sequence was assayed against T1, MBP-FoxP1dN (Mus musculus, UniProt P58462 326-579) (assay: PD-seq (MBP pull-down with sequencing); 20 mM Tris-HCl pH 7.5, 100 mM NaCl, 1.5 mM MgCl2, 0.4 uM protein, 0.1 uM dsDNA library, 30 min, room temperature, amylose pull-down; high values mean tight binding). Settings: protein: recombinant; tags: His6-MBP; chain copies: 2; dsDNA, one strand shown.
T1 sequence: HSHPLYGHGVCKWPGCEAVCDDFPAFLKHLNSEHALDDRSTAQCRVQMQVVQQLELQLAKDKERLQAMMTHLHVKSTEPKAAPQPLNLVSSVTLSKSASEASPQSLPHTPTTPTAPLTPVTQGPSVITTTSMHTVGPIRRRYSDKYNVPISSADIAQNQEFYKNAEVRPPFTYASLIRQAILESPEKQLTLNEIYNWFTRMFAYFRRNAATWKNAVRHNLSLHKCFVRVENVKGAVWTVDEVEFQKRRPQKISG
Procedure, shortened: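 Protein and DNA were mixed at 0.4 µM and 0.1 µM and held for 30 min at room temperature in Tris pH 7.5 buffer with NaCl and MgCl2; the protein was a His6-MBP-tagged, N-terminally truncated mouse FoxP3 or FoxP1 fragment from E. coli, and the DNA a Klenow-filled double-stranded degenerate library. Amylose resin captured the complexes, which were washed three times. Binding is read as reads-per-million enrichment of pull-down versus input after Illumina sequencing, with replicates pooled.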

Row | Sequence | binding signal
1 | GATGATTGTTCTCCCAGCTGATGAATTTCCAGACTCGAGTAAACAAATTTTCCTAATCTTTCTGTTCAAGCGCCATCTAC | 0.767 RPM ratio (pull-down/input)
2 | GATGATTGTTCTCCCAGCTGATGAATTGCAAACGTCGAGTAAACAAATTTTCCTAATCTTTCTGTTCAAGCGCCATCTAC | 1.24 RPM ratio (pull-down/input)
3 | GATGATTGTTCTCCCAGCTGATGAATTCTAACACTCGAGTAAACAAATTTTCCTAATCTTTCTGTTCAAGCGCCATCTAC | 0.951 RPM ratio (pull-down/input)
4 | GATGATTGTTCTCCCAGCTGATGAATTTTATGAGTCGAGTAAACAAATTTTCCTAATCTTTCTGTTCAAGCGCCATCTAC | 1.03 RPM ratio (pull-down/input)
5 | GATGATTGTTCTCCCAGCTGATGAATTACACAGTTCGAGTAAACAAATTTTCCTAATCTTTCTGTTCAAGCGCCATCTAC | 1.18 RPM ratio (pull-down/input)
6 | GATGATTGTTCTCCCAGCTGATGAATTACTCCGTTCGAGTAAACAAATTTTCCTAATCTTTCTGTTCAAGCGCCATCTAC | 0.991 RPM ratio (pull-down/input)
7 | GATGATTGTTCTCCCAGCTGATGAATTTATTCTGTCGAGTAAACAAATTTTCCTAATCTTTCTGTTCAAGCGCCATCTAC | 1.12 RPM ratio (pull-down/input)
8 | GATGATTGTTCTCCCAGCTGATGAATTCCATTTCTCGAGTAAACAAATTTTCCTAATCTTTCTGTTCAAGCGCCATCTAC | 0.817 RPM ratio (pull-down/input)
9 | GATGATTGTTCTCCCAGCTGATGAATTGGGTGATTCGAGTAAACAAATTTTCCTAATCTTTCTGTTCAAGCGCCATCTAC | 0.95 RPM ratio (pull-down/input)
10 | GATGATTGTTCTCCCAGCTGATGAATTGATCTCATCGAGTAAACAAATTTTCCTAATCTTTCTGTTCAAGCGCCATCTAC | 1.09 RPM ratio (pull-down/input)
11 | GATGATTGTTCTCCCAGCTGATGAATTGTTAACATCGAGTAAACAAATTTTCCTAATCTTTCTGTTCAAGCGCCATCTAC | 1.34 RPM ratio (pull-down/input)
12 | GATGATTGTTCTCCCAGCTGATGAATTTGGGAGTTCGAGTAAACAAATTTTCCTAATCTTTCTGTTCAAGCGCCATCTAC | 0.877 RPM ratio (pull-down/input)
13 | GATGATTGTTCTCCCAGCTGATGAATTAGCGATATCGAGTAAACAAATTTTCCTAATCTTTCTGTTCAAGCGCCATCTAC | 1.06 RPM ratio (pull-down/input)
14 | GATGATTGTTCTCCCAGCTGATGAATTGTTATATTCGAGTAAACAAATTTTCCTAATCTTTCTGTTCAAGCGCCATCTAC | 1.57 RPM ratio (pull-down/input)
15 | GATGATTGTTCTCCCAGCTGATGAATTAGACTTTTCGAGTAAACAAATTTTCCTAATCTTTCTGTTCAAGCGCCATCTAC | 0.874 RPM ratio (pull-down/input)
16 | GATGATTGTTCTCCCAGCTGATGAATTGGCTGCGTCGAGTAAACAAATTTTCCTAATCTTTCTGTTCAAGCGCCATCTAC | 0.918 RPM ratio (pull-down/input)
17 | GATGATTGTTCTCCCAGCTGATGAATTTAAAGAATCGAGTAAACAAATTTTCCTAATCTTTCTGTTCAAGCGCCATCTAC | 0.944 RPM ratio (pull-down/input)
18 | GATGATTGTTCTCCCAGCTGATGAATTAAACCAGTCGAGTAAACAAATTTTCCTAATCTTTCTGTTCAAGCGCCATCTAC | 0.929 RPM ratio (pull-down/input)
19 | GATGATTGTTCTCCCAGCTGATGAATTTCAGCTCTCGAGTAAACAAATTTTCCTAATCTTTCTGTTCAAGCGCCATCTAC | 0.758 RPM ratio (pull-down/input)
20 | GATGATTGTTCTCCCAGCTGATGAATTAGAATAGTCGAGTAAACAAATTTTCCTAATCTTTCTGTTCAAGCGCCATCTAC | 0.964 RPM ratio (pull-down/input)

Row | Sequence | binding signal
21 | GATGATTGTTCTCCCAGCTGATGAATTGTATACCTCGAGTAAACAAATTTTCCTAATCTTTCTGTTCAAGCGCCATCTAC | 1.66 RPM ratio (pull-down/input)
22 | GATGATTGTTCTCCCAGCTGATGAATTCGACAACTCGAGTAAACAAATTTTCCTAATCTTTCTGTTCAAGCGCCATCTAC | 0.902 RPM ratio (pull-down/input)
23 | GATGATTGTTCTCCCAGCTGATGAATTTAAAACCTCGAGTAAACAAATTTTCCTAATCTTTCTGTTCAAGCGCCATCTAC | 0.793 RPM ratio (pull-down/input)
24 | GATGATTGTTCTCCCAGCTGATGAATTAAGCGATTCGAGTAAACAAATTTTCCTAATCTTTCTGTTCAAGCGCCATCTAC | 0.851 RPM ratio (pull-down/input)
25 | GATGATTGTTCTCCCAGCTGATGAATTGGCTTGTTCGAGTAAACAAATTTTCCTAATCTTTCTGTTCAAGCGCCATCTAC | 0.869 RPM ratio (pull-down/input)
26 | GATGATTGTTCTCCCAGCTGATGAATTAACGACTTCGAGTAAACAAATTTTCCTAATCTTTCTGTTCAAGCGCCATCTAC | 0.861 RPM ratio (pull-down/input)
27 | GATGATTGTTCTCCCAGCTGATGAATTTGGCCCGTCGAGTAAACAAATTTTCCTAATCTTTCTGTTCAAGCGCCATCTAC | 0.801 RPM ratio (pull-down/input)
28 | GATGATTGTTCTCCCAGCTGATGAATTTCTACAGTCGAGTAAACAAATTTTCCTAATCTTTCTGTTCAAGCGCCATCTAC | 0.94 RPM ratio (pull-down/input)
29 | GATGATTGTTCTCCCAGCTGATGAATTGGGGACCTCGAGTAAACAAATTTTCCTAATCTTTCTGTTCAAGCGCCATCTAC | 0.742 RPM ratio (pull-down/input)
30 | GATGATTGTTCTCCCAGCTGATGAATTACGTGTATCGAGTAAACAAATTTTCCTAATCTTTCTGTTCAAGCGCCATCTAC | 1.3 RPM ratio (pull-down/input)
31 | GATGATTGTTCTCCCAGCTGATGAATTCTGTATTTCGAGTAAACAAATTTTCCTAATCTTTCTGTTCAAGCGCCATCTAC | 1.18 RPM ratio (pull-down/input)
32 | GATGATTGTTCTCCCAGCTGATGAATTGCGCTTATCGAGTAAACAAATTTTCCTAATCTTTCTGTTCAAGCGCCATCTAC | 1.22 RPM ratio (pull-down/input)
33 | GATGATTGTTCTCCCAGCTGATGAATTTTGACCTTCGAGTAAACAAATTTTCCTAATCTTTCTGTTCAAGCGCCATCTAC | 0.87 RPM ratio (pull-down/input)
34 | GATGATTGTTCTCCCAGCTGATGAATTGTACGGCTCGAGTAAACAAATTTTCCTAATCTTTCTGTTCAAGCGCCATCTAC | 0.811 RPM ratio (pull-down/input)
35 | GATGATTGTTCTCCCAGCTGATGAATTCGTAGCTTCGAGTAAACAAATTTTCCTAATCTTTCTGTTCAAGCGCCATCTAC | 0.906 RPM ratio (pull-down/input)
36 | GATGATTGTTCTCCCAGCTGATGAATTAAGAGACTCGAGTAAACAAATTTTCCTAATCTTTCTGTTCAAGCGCCATCTAC | 0.798 RPM ratio (pull-down/input)
37 | GATGATTGTTCTCCCAGCTGATGAATTCAGTCTATCGAGTAAACAAATTTTCCTAATCTTTCTGTTCAAGCGCCATCTAC | 0.905 RPM ratio (pull-down/input)
38 | GATGATTGTTCTCCCAGCTGATGAATTCGGCGCCTCGAGTAAACAAATTTTCCTAATCTTTCTGTTCAAGCGCCATCTAC | 0.87 RPM ratio (pull-down/input)
39 | GATGATTGTTCTCCCAGCTGATGAATTAACGGACTCGAGTAAACAAATTTTCCTAATCTTTCTGTTCAAGCGCCATCTAC | 0.8 RPM ratio (pull-down/input)
40 | GATGATTGTTCTCCCAGCTGATGAATTGTGAAAATCGAGTAAACAAATTTTCCTAATCTTTCTGTTCAAGCGCCATCTAC | 1.27 RPM ratio (pull-down/input)
